# Results taken from the supplement of paper PMC9174493.
# The other results are listed elsewhere or left out. Single values of this set are uncertain. Values with irradiation are relative to irradiated vehicle.
# Assays:
# A549-Dual [1] = experiment: NF-kB reporter (SEAP) activity, viability-corrected, relative to vehicle (fold change vs vehicle); higher = more activation of STING-IRF / NF-kB immune response reporter; conditions: 10 µM
# A549-Dual [2] = experiment: ISRE reporter (Lucia luciferase) activity, viability-corrected, relative to vehicle (fold change vs vehicle); higher = more activation of STING-IRF / NF-kB immune response reporter; conditions: 10 µM
# 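For NF-kB reporter (SEAP) activity, viability-corrected, relative to vehicle in this document: viability correction based on the alamar blue assay, with concentrations leaving 10% survival or less dropped.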
Compound,NF-kB reporter (A549-Dual [1]; irradiation: 8 Gy/4 fr),NF-kB reporter (A549-Dual [1]; irradiation: none),ISRE reporter (A549-Dual [2]; irradiation: 8 Gy/4 fr),ISRE reporter (A549-Dual [2]; irradiation: none)
C[N+]1(C)C2CCC1CC(OC(=O)C(O)c1ccccc1)C2.[Br-] (stereo not drawn) [Homatropine Methylbromide],0.74,1.67,0.671,1.07
"CCC(=O)Oc1ccc2c(c1)CCC1C2CCC2(C)C(OC(=O)CC)CCC12 (stereo not drawn) [17-Beta-Estradiol-3,17-Dipropionate]",0.462,0.591,0.457,0.528
CCCNC(C)C(=O)Nc1c(C)csc1C(=O)OC.Cl (stereo not drawn) [Articaine HCl],0.497,0.683,0.588,0.727
COc1cc(OC)c(C(=O)CCCN2CCCC2)c(OC)c1.Cl [Buflomedil HCl],0.855,1.33,0.707,0.718
CC(CCC(=O)[O-])C1CCC2C3C(=O)CC4CC(=O)CCC4(C)C3CC(=O)C12C.[Na+] (stereo not drawn) [Sodium Dehydrocholate],0.791,0.691,0.691,0.553
CCC(C)C(=O)OC1CC(O)C=C2C=CC(C)C(CCC(O)CC(O)CC(=O)O)C21 (stereo not drawn) [Pravastatin],0.736,0.805,0.786,0.746
CCNC(=O)CCC/C=C\CC1C(O)CC(O)C1/C=C/C(O)CCc1ccccc1 (stereo not drawn) [Bimatoprost],0.85,0.624,0.867,0.715
NC(Cc1cc(I)c(Oc2cc(I)c(O)c(I)c2)c(I)c1)C(=O)[O-].[Na+] (stereo not drawn) [Levothyroxine sodium],0.932,1.14,0.745,0.521
"CC(C)OC(=O)C(C)NP(=O)(OCC1OC(n2ccc(=O)[nH]c2=O)C(C)(F)C1O)Oc1ccccc1 (stereo not drawn) [Sofosbuvir (PSI-7977, GS-7977)]",0.828,1.11,0.745,0.804
Cc1c(C)c2c(c(C)c1O)CCC(C)(CCCC(C)CCCC(C)CCCC(C)C)O2 (racemic) [(±)-α-Tocopherol],0.798,0.459,0.727,0.42
CN1C(CCl)Nc2cc(Cl)c(S(N)(=O)=O)cc2S1(=O)=O (stereo not drawn) [Methyclothiazide],0.81,1.14,0.765,0.548
NCc1ccccc1CC(=O)NC1C(=O)N2C(C(=O)O)=C(CSc3nnnn3CC(=O)O)CSC12 (stereo not drawn) [Ceforanide],1.18,1.03,0.858,0.594
CN(C)CCn1nnnc1SCC1=C(C(=O)O)N2C(=O)C(NC(=O)Cc3csc(N)n3)C2SC1.Cl.Cl (stereo not drawn) [Cefotiam hydrochloride],0.808,0.866,0.804,0.672
COc1cc2c(cc1OC)-c1cc3ccc(OC)c(OC)c3c[n+]1CC2 [Palmatine],0.637,0.92,0.732,1.62
CN1CCCN=C1/C=C/c1cccc(O)c1.O=C(O)c1cc2ccccc2c(Cc2c(O)c(C(=O)O)cc3ccccc23)c1O [Oxantel Pamoate],0.908,1.22,0.352,0.344
COc1cc2c(cc1OC)C1CC(OC(=O)C(N)C(C)C)C(CC(C)C)CN1CC2.Cc1ccc(S(=O)(=O)O)cc1.Cc1ccc(S(=O)(=O)O)cc1 (stereo not drawn) [Valbenazine tosylate],0.746,0.523,0.799,0.705
CC(O)C1C(=O)N2C(C(=O)[O-])=C(SC3CNC(C(=O)Nc4cccc(C(=O)O)c4)C3)C(C)C12.[Na+] (stereo not drawn) [Ertapenem sodium],0.777,0.888,0.769,0.694
